Experimental data published in PubChem BioAssay AID686970 (National Center for Advancing Translational Sciences (NCATS), 2013).
The campaign covered roughly 360,000 compounds. About 6,000 (1.7%) were called active. Inconclusive means that the source gave no clear call. Such entries were picked first, then a sample of the others. Calls come from the whole dose curve; as a rule, active = well fitted cell-killing curve with a large enough effect; inconclusive = small, poorly fitted or top-dose-only effect, or effect the other way; inactive = flat fitted curve, though single readings scatter. No potency is given beside an inconclusive call; the fits are too rough.

Assay: qHTS for induction of synthetic lethality in tumor cells producing 2HG: qHTS for the HT-1080-NT fibrosarcoma cell line;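 note: NT is the 2HG producing partner of a matched IDH1 knockdown line; nearly all actives have a fitted effect of over 55% in size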;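 for activity, negative = less viability: 0% = DMSO-treated cells and -100% = media-only wells without cells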
Conditions: HT-1080-NT fibrosarcoma viability, CellTiter-Glo ATP luminescence, 48 h; activity, negative = less viability: at 46.1 µM (top of the series)
Outline: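 Fibrosarcoma NT cells, 750 per well in 5% FBS RPMI, were exposed to compound for 48 hours. Viability: CellTiter-Glo luminescence.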
Potency is the fitted concentration of half-maximal effect; tags give direction and shape of the fitted curve.

| SMILES | Potency | activity, negative = less viability |
| --- | --- | --- |
| COC(=O)C1=C(c2ccc(-c3ccccc3)c(F)c2)C[C@@H]2CC[C@H]1N2C(=O)N1CCCCC1 | inconclusive [cytotoxic, single point] | – |
| CCOC(=O)[C@]12Cc3ccccc3[C@H]1N(C(C)C)C(=O)c1cc(OC)ccc12 | inconclusive [cytotoxic, single point] | – |
| CN1C(=O)C(=Cc2ccccc2OCCOc2ccc([N+](=O)[O-])cc2)C(=O)N(C)C1=O | inconclusive [cytotoxic, single point] | – |
| CN1CCN(CCOC2c3ccccc3CSc3ccc(Cl)cc32)CC1 (stereo not given) | active: 16.4 µM | – |
| Cc1cc(S(=O)(=O)NC(C)C)ccc1OCC(=O)N1CCN(Cc2ccc3c(c2)OCO3)CC1 | inconclusive [cytotoxic, partial curve] | – |
| COCCNC(=O)Cn1cc(/C=C2\C(=O)NC(=O)N(c3cccc(C)c3C)C2=O)c2ccccc21 | inconclusive [cytotoxic, single point] | – |
| FC(F)(F)c1ccc(-c2ccc3c(c2)CNCc2cnnn2-3)cc1 | inconclusive [rising, single point] | – |
| O=c1c(O)c(-c2ccc(O)c(O)c2)oc2cc(O)cc(O)c12 | inconclusive [cytotoxic, partial curve] | – |
| CCCCCn1c(N)c(C(=O)NCCN2CCOCC2)c2nc3ccccc3nc21 | active: 16.4 µM | – |
| COc1ccc(OC(=O)Nc2ccc([N+](=O)[O-])cc2OC)cc1 | inconclusive [cytotoxic, full curve, poor fit] | – |
| C=Cn1ccnc1P(=S)(c1ccc(Cl)cc1)c1nccn1C=C | – | inactive: 2.65% |
| COC(=O)C1=C(c2ccc(OC)c(OC)c2)C[C@@H]2CC[C@H]1N2C(=O)N1CCC(C)CC1 | – | inactive: 15.6% |
| CCOc1cc(CNCCc2c[nH]c3ccccc23)cc(Cl)c1OCC | inconclusive [cytotoxic, single point] | – |
| COc1cccc(C(c2nnnn2C(C)(C)C)N2CCC3(CC2)C(=O)NCN3c2ccccc2)c1OC (stereo not given) | inconclusive [cytotoxic, single point] | – |
| CCCCn1c(NS(=O)(=O)c2ccccc2)c(C(=O)OCC)c2nc3ccccc3nc21 | inconclusive [cytotoxic, single point] | – |
| COc1cc2c(cc1OC)CN(c1ccc([N+](=O)[O-])c(C(F)(F)F)c1)CC2 | inconclusive [cytotoxic, single point] | – |
| COC1C(OC(=O)c2ccc(C)[nH]2)C(O)C(Oc2ccc3c(O)c(NC(=O)c4ccc(O)c(CC=C(C)C)c4)c(=O)oc3c2Cl)OC1(C)C (stereo not given) | inconclusive [cytotoxic, partial curve] | – |
| CCN(CC)c1ccc(N=Cc2c(O)n(-c3ccccc3C)c(=O)[nH]c2=O)cc1 | inconclusive [cytotoxic, single point] | – |
| N=c1sc2c(n1Cc1ccccc1)CCCC2 | inconclusive [cytotoxic, single point] | – |
| O=C(CCc1ccccc1)N1Cc2cc(-c3ccccc3)ccc2-n2nncc2C1 | inconclusive [cytotoxic, single point] | – |
| CCN(CC)C(=O)Cn1cc(/C=C2\C(=O)NC(=O)N(c3ccccc3F)C2=O)c2ccccc21 | inconclusive [cytotoxic, single point] | – |
| CCn1nc(-c2cccs2)nc2c(=O)n(C)c(=O)nc1-2 | active: 3.26 µM | – |

| SMILES | Potency | activity, negative = less viability |
| --- | --- | --- |
| c1ccc2c(CNC3CCCCC3)c[nH]c2c1 | inconclusive [cytotoxic, single point] | – |
| CCOC(=O)C1(CCOc2ccccc2)CCN(Cc2ccccc2OC)CC1 | inconclusive [cytotoxic, single point] | – |
| COC(=O)[C@H]1[C@H]2C[C@@H]3c4[nH]c5cc(OC)ccc5c4CCN3C[C@H]2C[C@@H](OC(=O)/C=C/c2cc(OC)c(OC)c(OC)c2)[C@@H]1OC | inconclusive [cytotoxic, partial curve, poor fit] | – |
| C=CCn1c(O)c(C(C)=Nc2ccc(N(CC)CC)cc2)c(=O)[nH]c1=O | inconclusive [cytotoxic, single point] | – |
| CC(C)(C)n1nnnc1C(CCc1ccccc1)N1CCC2(CC1)C(=O)NCN2c1ccccc1 (stereo not given) | inconclusive [cytotoxic, single point] | – |
| CC(C)(C)n1nnnc1C(c1cc2ccccc2o1)N1CCC2(CC1)C(=O)NCN2c1ccccc1 (stereo not given) | – | inactive: -24.7% |
| NC(Cc1ccc(F)cc1)c1csc(Nc2cnccn2)n1 (stereo not given) | inconclusive [cytotoxic, partial curve, poor fit] | – |
| CN1CCCC(C(=O)c2ccc(-c3ccccc3)cc2)C1 (stereo not given) | – | inactive: -27.2% |
| CCOC(=O)c1cccc(-[n+]2c(-c3ccccc3)cc(-c3ccccc3)cc2-c2ccccc2)c1 | inconclusive [cytotoxic, single point] | – |
| Cc1ccc(-c2cc(-c3ccccc3)cc(-c3ccccc3)[n+]2-c2ccccc2C(=O)O)cc1 | – | inactive: -25.8% |
| c1ccc(CCCN2CCN(CCOC(c3ccccc3)c3ccccc3)CC2)cc1 | active: 23.1 µM | – |
| O=C(OC1CCN(CCCl)CC1)C(c1ccccc1)c1ccccc1 | – | inactive: -24.9% |
| CCCCCCOc1ccc(CN2CCN(C)CC2)cc1 | inconclusive [cytotoxic, single point] | – |
| CC1=CC2OC3CC4OC(=O)C=CC=CC(=O)OCCC(C)C(O)C(=O)OCC2(CC1)C4(C)C31CO1 (stereo not given) | active: 0.164 µM | – |
| Cc1cccn2c(=O)c3cc(C(=O)N4CCC5(CC4)OCCO5)n(C)c3nc12 | active: 16.4 µM | – |
| O=c1c(C=NCCN2CCNCC2)c(O)n(C2CCCCC2)c(=O)n1C1CCCCC1 | active: 20 µM | – |
| O=C(CN1CCN(CCO)CC1)Nc1ccc(Cl)cc1C(=O)c1ccccc1 | inconclusive [cytotoxic, single point] | – |
| COC(=O)c1c(C)n(Cc2ccc3c(c2)OCO3)c2ccc(O)cc12 | inconclusive [cytotoxic, single point] | – |
| CC(C)(C)C(=O)N1Cc2cc(-c3ccccc3)ccc2-n2nncc2C1 | – | inactive: -4.22% |
| CCCCC(=O)N/N=C/c1c(O)n(CCC2=CCCCC2)c(=O)[nH]c1=O | inconclusive [cytotoxic, single point] | – |
| c1ccc(-c2ccncc2)cc1 | inconclusive [rising, single point] | – |
| CCCCCNC(=O)C(c1ccncc1)n1c(=O)c(-c2cc3ccccc3[nH]2)nc2ccccc21 (stereo not given) | inconclusive [cytotoxic, single point] | – |

| SMILES | Potency | activity, negative = less viability |
| --- | --- | --- |
| NS(=O)(=O)c1ccc(CCNc2nn3c(-c4ccc(F)c(Cl)c4)cnc3s2)cc1 | inconclusive [cytotoxic, single point] | – |
| C/C=C(\C)C(=O)N[C@@H](c1ccccc1)[C@@H](O)C(=O)O[C@H]1C[C@@]2(O)[C@@H](OC(=O)c3ccccc3)C3[C@](C)(C(=O)[C@H](O)C(=C1C)C2(C)C)[C@@H](O)C[C@H]1OC[C@@]31OC(C)=O (stereo not given in full) | active: 0.0411 µM | – |
| Fc1ccc(CNCCc2c[nH]c3ccccc23)cc1 | inconclusive [cytotoxic, single point] | – |
| O=c1oc2ccccc2c(O)c1C(c1ccc([N+](=O)[O-])cc1)c1c(O)c2ccccc2oc1=O | – | inconclusive: -24.5% [cytotoxic] |
| CC(C)Sc1nnc([C@@H](N)Cc2c[nH]c3ccccc23)o1 | – | inactive: -5.96% |
| CNC(=S)N1CCN(CCN=Cc2c(O)n(-c3ccc(C)cc3)c(=S)[nH]c2=O)CC1 | – | inactive: -3.91% |
| Cc1cccc(N2C(=O)NC(=O)/C(=C\c3cc(C)n(-c4sc5c(c4C#N)CCCC5)c3C)C2=O)c1C | inconclusive [cytotoxic, single point] | – |
| COc1ccc(S(=O)(=O)Nc2ccccc2OC)cc1N=Nc1c(O)[nH]c(=S)[nH]c1=O | active: 14.6 µM | – |
| C/C=C1\CN2[C@H]3C[C@@]45c6ccccc6N(C)[C@H]4[C@@H]2CC1C3[C@H]5O (stereo not given in full) | – | inactive: 6.71% |
| COc1ccc(-n2nnnc2C(c2ccccc2OC(F)(F)F)N2CCC(n3c(=O)[nH]c4ccccc43)CC2)cc1 (stereo not given) | inconclusive [cytotoxic, single point] | – |
| NC(Cc1ccc(F)cc1)c1csc(Nc2ncccn2)n1 (stereo not given) | active: 5.8 µM | – |
| CN1C(=O)C(=Cc2ccc(N3CCOCC3)o2)C(=O)N(C)C1=O | – | inactive: 23.1% |
| CC(C)CNC(=O)c1c(N)n(Cc2ccco2)c2nc3ccccc3nc12 | inconclusive [cytotoxic, single point] | – |
| COC(=O)C1=C(c2cccc(OCc3ccccc3)c2)C[C@@H]2CC[C@H]1N2C(=O)NCc1ccc(OC)cc1 | – | inactive: -14.9% |
| O=c1[nH]c(O)c(C=Nc2cc(F)cc(F)c2)c(=O)[nH]1 | – | inactive: 8.67% |
| CCCOP(=O)(OCCC)C(Nc1ccc(C(C)C)cc1)c1ccc([N+](=O)[O-])cc1 (stereo not given) | inconclusive [cytotoxic, single point] | – |
| Fc1ccc(C[n+]2c(-c3ccccc3)cc(-c3ccccc3)cc2-c2ccccc2)cc1 | active: 16.4 µM | – |
| COC(=O)C1=C(c2cccc(OCc3ccccc3)c2)C[C@@H]2CC[C@H]1N2C(=O)NCc1cccc(F)c1 | – | inconclusive: 35% |
| CC1CCCC(C)N1/N=C/c1c[nH]c2ccc(Br)cc12 (stereo not given) | active: 20.6 µM | – |
| Fc1ccc(CCNCc2ccccc2Cl)cc1 | – | inactive: -2.02% |
| CCOc1ccc(N2C(=O)/C(=C\c3cccs3)C(=O)NC2=S)cc1 | inconclusive [cytotoxic, single point] | – |
